Results on nine variants are retold here after the supplement of paper PMC12217912.

B1: TEV protease; numbered along this chain (parent)
chain: MGESLFKGPRDYNPISSSICHLTNESDGHTTSLYGIGFGPFIITNKHLFRRNNGTLVVQSLHGVFKVKDTTTLQQHLVDGRDMIIIRMPKDFPPFPQKLKFREPQREERICLVTTNFQTKSMSSMVSDTSCTFPSGDGIFWKHWIQTKDGQCGSPLVSTRDGFIVGIHSASNFTNTNNYFTSVPKNFMELLTNQEAQQWVSGWRLNADSVLWGGHKVFMVKPEEPFQPVKEATQL

The assay covers variants of B1. Briefly: raw area under fraction-flipped curve 0-4 h after induction (AUC4h, not background-subtracted), DNA-recorder readout of cleavage of the substrate (dimensionless); higher = more cleavage of the substrate by the protease variant. The conditions noted are these: temperature: 34 °C; time window: 0-4 h after rhamnose induction. On the procedure:
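In vivo DNA recorder in E. coli TOP10(DE3) ΔrhaA at 34 °C. Each TEVp single-site mutant (parent TEVp 0) is paired with a single-site variant of the 7-mer TEVs (canonical ENLYFQ|S). The substrate sits between flexible linkers in a Bxb1-sfGFP-TEVs-SsrA fusion, so cleavage stabilises Bxb1 and speeds flipping of a recombination array, read by NGS. The value is the raw area under the fraction-flipped curve over 0-4 h after rhamnose induction (AUC4h), with ≥20 reads per time point. It is not background-subtracted; inactive controls average about 0.047.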

The other results are listed elsewhere or left out. The full chains were built here from the parent and the listed change. Inactive controls read about 0.05.
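Also: Bxb1 expression induced with 0.2% (w/v) L-rhamnose at OD600 near 0.5, cultures sampled hourly, flipped fraction per protease–substrate barcode pair counted by paired-end Illumina sequencing.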

For the variant MGESLFKGPRDYNPISSSICHLTNESDGHTTSLYGIGFGPFIITNKHLFRRNNGTLVVQSLHGVFKVKDTTTLQQHLVDGRDMIIIRMPKDFPPFPQKLKFREPQREERICLVTTNFQTKSMSSMVSDTSCTFPSNDGIFWKHWIQTKDGQCGSPLVSTRDGFIVGIHSASNFTNTNNYFTSVPKNFMELLTNQEAQQWVSGWRLNADSVLWGGHKVFMVKPEEPFQPVKEATQL [G136N], the “area with substrate ENLCFQS” value was 0.0719, the “area with substrate ENLDFQS” value is 0.0586, the “area with substrate ENLEFQS” value came out at 0.065 and the “area with substrate ENLFFQS” value is 0.102. For the same variant, the “area with substrate ENLGFQS” value is 0.0675, the “area with substrate ENLHFQS” value was determined as 0.0796, the “area with substrate ENLKFQS” value was determined as 0.0912 and the “area with substrate ENLLFQS” value came to 0.0706. Besides, the “area with substrate ENLNFQS” value came to 0.0666, the “area with substrate ENLPFQS” value was found to be 0.0597, the “area with substrate ENLQFQS” value came out at 0.0603 and the “area with substrate ENLRFQS” value stood at 0.081. The “area with substrate ENLSFQS” value was 0.0703, the “area with substrate ENLTFQS” value is 0.0144, the “area with substrate ENLVFQS” value is 0.0533 and the “area with substrate ENLWFQS” value stood at 0.0613.
Regarding MGESLFKGPRDYNPISSSICHLTNESDGHTTSLYGIGFGPFIITNKHLFRRNNGTLVVQSLHGVFKVKDTTTLQQHLVDGRDMIIIRMPKDFPPFPQKLKFREPQREERICLVTTNFQTKSMSSMVSDTSCTFPSGDGIFWKHYIQTKDGQCGSPLVSTRDGFIVGIHSASNFTNTNNYFTSVPKNFMELLTNQEAQQWVSGWRLNADSVLWGGHKVFMVKPEEPFQPVKEATQL [W144Y], the “area with substrate ENLCFQS” value was 0.108, the “area with substrate ENLDFQS” value is 0.0767, the “area with substrate ENLEFQS” value was found to be 0.0501 and the “area with substrate ENLFFQS” value worked out at 0.0743. Also, the “area with substrate ENLGFQS” value turned out to be 0.0681, the “area with substrate ENLHFQS” value amounted to 0.0763, the “area with substrate ENLIFQS” value turned out to be 0.0662 and the “area with substrate ENLKFQS” value worked out at 0.0754. In addition, the “area with substrate ENLLFQS” value came to 0.064, the “area with substrate ENLMFQS” value was 0.067, the “area with substrate ENLNFQS” value is 0.0666 and the “area with substrate ENLPFQS” value was found to be 0.0661. The “area with substrate ENLQFQS” value was 0.0832, the “area with substrate ENLRFQS” value stood at 0.0652, the “area with substrate ENLSFQS” value was 0.0599 and the “area with substrate ENLVFQS” value turned out to be 0.0785.
Consider MGESLFKGPRDYNPISSSICHLTNESDGHTTSLYGIGFGPFIITNKHLFRRNNGTLVVQSLHGVFKVKDTTTLQQHLVDGRDMIIIRMPKDFPPFPQKLKFREPQREERICLVTTNFQTKSMSSMVSDTSCTFPSGDGIFWKHWIQTKDGQCGSPLVSTRDGFIVGIHSASNFTNTNNYFTSVPKNFMELLTNQEAQQWVSGWRLNADSVLWGGHKVFMVKPEEPCQPVKEATQL [F226C], for which the “area with substrate ENLCFQS” value turned out to be 0.07, the “area with substrate ENLDFQS” value was 0.0705, the “area with substrate ENLEFQS” value was found to be 0.0632 and the “area with substrate ENLFFQS” value came out at 0.0904. Further, the “area with substrate ENLGFQS” value came to 0.0583, the “area with substrate ENLHFQS” value was 0.0946, the “area with substrate ENLIFQS” value was 0.0942 and the “area with substrate ENLKFQS” value is 0.0835. The “area with substrate ENLLFQS” value worked out at 0.0766, the “area with substrate ENLNFQS” value amounted to 0.059, the “area with substrate ENLPFQS” value is 0.0544 and the “area with substrate ENLRFQS” value is 0.0476. For the same variant, the “area with substrate ENLSFQS” value came to 0.0601, the “area with substrate ENLVFQS” value turned out to be 0.0727 and the “area with substrate ENLWFQS” value came to 0.0496.
MGESLFKGPRDYNPISSSICHLTNESDGHTTSLYGIGFGPFIITNKHLFRRNNGTLVVQSLHGVFKVKDTTTLQQHLVDGRDMIIIRMPKDFPPFPQKLKFREPQREERICLVTTNFQTKSMSSMVSDTSCTFPSGDGIFWKHWIQTKDGQCGSPLVSTRDGFIVGKHSASNFTNTNNYFTSVPKNFMELLTNQEAQQWVSGWRLNADSVLWGGHKVFMVKPEEPFQPVKEATQL [I167K]: the “area with substrate ENLCFQS” value is 0.0357, the “area with substrate ENLDFQS” value stood at 0.0586, the “area with substrate ENLEFQS” value is 0.0582 and the “area with substrate ENLFFQS” value was 0.0692. Also, the “area with substrate ENLGFQS” value worked out at 0.0611, the “area with substrate ENLHFQS” value was 0.055, the “area with substrate ENLIFQS” value was found to be 0.0583 and the “area with substrate ENLKFQS” value is 0.0605. The “area with substrate ENLLFQS” value was found to be 0.0541, the “area with substrate ENLMFQS” value turned out to be 0.0685, the “area with substrate ENLNFQS” value is 0.0635 and the “area with substrate ENLPFQS” value came out at 0.0421. Also, the “area with substrate ENLQFQS” value turned out to be 0.0604, the “area with substrate ENLSFQS” value stood at 0.0731 and the “area with substrate ENLWFQS” value was determined as 0.0612.
With MGESLFKKPRDYNPISSSICHLTNESDGHTTSLYGIGFGPFIITNKHLFRRNNGTLVVQSLHGVFKVKDTTTLQQHLVDGRDMIIIRMPKDFPPFPQKLKFREPQREERICLVTTNFQTKSMSSMVSDTSCTFPSGDGIFWKHWIQTKDGQCGSPLVSTRDGFIVGIHSASNFTNTNNYFTSVPKNFMELLTNQEAQQWVSGWRLNADSVLWGGHKVFMVKPEEPFQPVKEATQL [G8K], the “area with substrate ENLCFQS” value was determined as 0.0729, the “area with substrate ENLEFQS” value amounted to 0.0662, the “area with substrate ENLFFQS” value is 0.0881 and the “area with substrate ENLNFQS” value amounted to 0.0714. The “area with substrate ENLPFQS” value amounted to 0.0392.
Regarding MGESLFKGPRDYNPISSSICHLTNESDGHTTSLYGIGFGPFIITNKHLFRRNNGTLVVQSLHGVFKVKDTTTLQQHLVDGRDMIIIRMPKDFPPFPQKLKFREPQREERICLVTTNFQTKSMSSMVSDTSCTFPSGDGIFWKHWIQTKDGQCGSPLVSTRDGFIVGIMSASNFTNTNNYFTSVPKNFMELLTNQEAQQWVSGWRLNADSVLWGGHKVFMVKPEEPFQPVKEATQL [H168M], the “area with substrate ENLCFQS” value came to 0.0992, the “area with substrate ENLEFQS” value came to 0.0621, the “area with substrate ENLHFQS” value turned out to be 0.0542 and the “area with substrate ENLIFQS” value came out at 0.0581. Besides, the “area with substrate ENLKFQS” value turned out to be 0.0256, the “area with substrate ENLLFQS” value came to 0.0637, the “area with substrate ENLMFQS” value is 0.049 and the “area with substrate ENLPFQS” value came out at 0.0186. The “area with substrate ENLQFQS” value came out at 0.0577, the “area with substrate ENLRFQS” value turned out to be 0.0577, the “area with substrate ENLSFQS” value stood at 0.0406 and the “area with substrate ENLWFQS” value turned out to be 0.0688.
For the variant MGESLFKGPRDYNPISSSICHLTNESDGHTTSLYGIGFGPFIITNKHLFRRNNGTLVVQSLHGVFKVKDTTTLQQHLVDGRDMIIIRMPKDFPPFPQKLKFREPQREERICLVTTNNQTKSMSSMVSDTSCTFPSGDGIFWKHWIQTKDGQCGSPLVSTRDGFIVGIHSASNFTNTNNYFTSVPKNFMELLTNQEAQQWVSGWRLNADSVLWGGHKVFMVKPEEPFQPVKEATQL [F117N], the “area with substrate ENLCFQS” value came to 0.084, the “area with substrate ENLDFQS” value was 0.0629, the “area with substrate ENLEFQS” value amounted to 0.0563 and the “area with substrate ENLHFQS” value was 0.0629. The “area with substrate ENLIFQS” value worked out at 0.0904, the “area with substrate ENLKFQS” value amounted to 0.0897, the “area with substrate ENLLFQS” value came out at 0.0489 and the “area with substrate ENLMFQS” value stood at 0.0836. Moreover, the “area with substrate ENLNFQS” value turned out to be 0.0676, the “area with substrate ENLPFQS” value turned out to be 0.0627, the “area with substrate ENLQFQS” value is 0.0608 and the “area with substrate ENLRFQS” value was found to be 0.0804. Also, the “area with substrate ENLSFQS” value came to 0.0609, the “area with substrate ENLVFQS” value is 0.0844 and the “area with substrate ENLWFQS” value worked out at 0.0848.
Regarding MGESLFKGPRDYNPISSSICHLTNESDGHTTSLYGIGFGPFIITNKHLFRRNNGTLVVQSLHGVFKVKDTTTLQQHLVDGRDMIIIRMPKDFPPFPQKLKFREPWREERICLVTTNFQTKSMSSMVSDTSCTFPSGDGIFWKHWIQTKDGQCGSPLVSTRDGFIVGIHSASNFTNTNNYFTSVPKNFMELLTNQEAQQWVSGWRLNADSVLWGGHKVFMVKPEEPFQPVKEATQL [Q105W], the “area with substrate ENLCFQS” value is 0.0746, the “area with substrate ENLDFQS” value came to 0.0829, the “area with substrate ENLEFQS” value is 0.0564 and the “area with substrate ENLFFQS” value is 0.0699. Further, the “area with substrate ENLGFQS” value turned out to be 0.0711, the “area with substrate ENLIFQS” value is 0.0742, the “area with substrate ENLKFQS” value was 0.0768 and the “area with substrate ENLNFQS” value amounted to 0.0625. The “area with substrate ENLPFQS” value is 0.0584, the “area with substrate ENLQFQS” value was determined as 0.0728, the “area with substrate ENLRFQS” value is 0.0748 and the “area with substrate ENLSFQS” value was found to be 0.055.
With MGESLFKGPRDYNPISSSICHLTNESDGHTTSLYGIGFGPFIITNKHLFRRNNGTLVVQSLHGVFKVKDTTTLQQHLVDGRDMIIIRMPKDFPPFPQKLKFREPQREERICLVTTNFQTKSMSSMVSDTSCTFPSGDGIFWKHWIQTKDGQAGSPLVSTRDGFIVGIHSASNFTNTNNYFTSVPKNFMELLTNQEAQQWVSGWRLNADSVLWGGHKVFMVKPEEPFQPVKEATQL [C152A], the “area with substrate ENLCFQS” value turned out to be 0.0702, the “area with substrate ENLDFQS” value amounted to 0.0657, the “area with substrate ENLEFQS” value worked out at 0.062 and the “area with substrate ENLFFQS” value came to 0.0631. For the same variant, the “area with substrate ENLGFQS” value was found to be 0.0457, the “area with substrate ENLHFQS” value was found to be 0.0646, the “area with substrate ENLIFQS” value worked out at 0.0616 and the “area with substrate ENLKFQS” value was determined as 0.0604. The “area with substrate ENLLFQS” value amounted to 0.0586, the “area with substrate ENLMFQS” value is 0.0651, the “area with substrate ENLNFQS” value came to 0.0496 and the “area with substrate ENLRFQS” value is 0.0766. The “area with substrate ENLSFQS” value came out at 0.0593.
